# Data taken from PMC3795072.
# Sequences of proteins named here, by UniProt entry; tags and fusion partners are left off.
# UniProt P10275: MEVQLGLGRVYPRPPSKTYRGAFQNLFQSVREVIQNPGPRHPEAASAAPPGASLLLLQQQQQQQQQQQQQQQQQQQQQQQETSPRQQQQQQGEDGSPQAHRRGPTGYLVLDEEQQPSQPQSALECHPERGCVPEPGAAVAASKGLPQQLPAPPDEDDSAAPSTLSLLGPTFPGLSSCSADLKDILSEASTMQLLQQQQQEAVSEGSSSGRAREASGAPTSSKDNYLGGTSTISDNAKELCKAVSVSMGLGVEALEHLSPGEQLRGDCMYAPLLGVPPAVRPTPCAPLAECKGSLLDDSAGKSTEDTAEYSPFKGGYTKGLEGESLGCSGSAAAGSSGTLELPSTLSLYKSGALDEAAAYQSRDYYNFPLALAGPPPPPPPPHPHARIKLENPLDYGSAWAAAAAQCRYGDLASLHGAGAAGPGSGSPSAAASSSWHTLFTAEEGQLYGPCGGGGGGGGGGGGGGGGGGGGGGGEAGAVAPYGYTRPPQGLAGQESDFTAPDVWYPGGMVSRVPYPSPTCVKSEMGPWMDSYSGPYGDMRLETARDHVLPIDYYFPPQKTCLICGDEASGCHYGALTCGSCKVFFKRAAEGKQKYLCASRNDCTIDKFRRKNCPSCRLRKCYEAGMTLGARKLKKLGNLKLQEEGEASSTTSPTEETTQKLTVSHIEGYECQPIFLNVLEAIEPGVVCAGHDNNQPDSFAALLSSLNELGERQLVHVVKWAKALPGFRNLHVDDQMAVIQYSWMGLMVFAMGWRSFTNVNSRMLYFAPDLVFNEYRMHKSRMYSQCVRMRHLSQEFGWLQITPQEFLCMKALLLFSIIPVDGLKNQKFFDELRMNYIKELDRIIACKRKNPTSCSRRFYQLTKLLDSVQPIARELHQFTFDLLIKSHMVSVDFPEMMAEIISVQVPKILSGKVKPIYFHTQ
# Changes are numbered by the printed parent chain. No constants are given. Whether binding was seen depends on the method and setting. For some of these results: Binding seen in cells or lysates may run through a third protein. Some binding calls cover weakened binding; strength is not graded here. For some of these results: Sequences can lack the tags named with a protein.
# Tests used:
# [1] = molecular target: GAL4 DNA-binding domain-fused full-length androgen receptor (AR), pBIND vector (UniProt P10275); assay: two-hybrid; mammalian two-hybrid in HEK 293 cells: VP16-PAK6 full length or deletion mutants (pACT), GAL4 DBD-AR (pBIND), pG5-Luc reporter, renilla control; androgen treatment not stated for this panel
# [2] = molecular target: T1, GAL4 DNA-binding domain-fused PAK6-5A with HA tag, pBIND vector (UniProt Q9NQU5); assay: two-hybrid; mammalian two-hybrid in HEK-293 cells: VP16-HA-AR (pACT), GAL4 DBD-HA-PAK6-wt, -5A or -5E (pBIND), pG5-Luc; vehicle control or DHT (10 nM) for 20 h, dual luciferase assay
# T1 sequence: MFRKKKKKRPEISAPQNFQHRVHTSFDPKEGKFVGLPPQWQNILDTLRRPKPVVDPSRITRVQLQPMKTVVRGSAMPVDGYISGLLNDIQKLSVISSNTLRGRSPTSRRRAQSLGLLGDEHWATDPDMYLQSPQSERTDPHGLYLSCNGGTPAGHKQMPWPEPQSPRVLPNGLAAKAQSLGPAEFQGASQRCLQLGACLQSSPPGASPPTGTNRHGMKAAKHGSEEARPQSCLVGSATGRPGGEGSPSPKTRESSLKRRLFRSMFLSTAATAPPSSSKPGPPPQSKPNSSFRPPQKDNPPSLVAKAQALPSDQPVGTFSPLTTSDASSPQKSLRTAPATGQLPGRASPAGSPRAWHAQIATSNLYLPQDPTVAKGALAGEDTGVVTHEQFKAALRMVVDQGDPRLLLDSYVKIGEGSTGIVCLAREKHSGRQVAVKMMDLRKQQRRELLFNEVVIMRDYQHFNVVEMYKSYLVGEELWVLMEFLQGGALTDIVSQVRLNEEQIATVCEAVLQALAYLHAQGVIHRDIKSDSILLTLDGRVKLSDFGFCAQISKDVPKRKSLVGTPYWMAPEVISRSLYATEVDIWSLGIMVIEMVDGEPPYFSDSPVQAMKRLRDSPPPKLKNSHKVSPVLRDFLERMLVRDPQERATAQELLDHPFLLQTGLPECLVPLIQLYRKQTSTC
# [3] = molecular target: GAL4 DNA-binding domain-fused PAK6 wild type with HA tag, pBIND vector (UniProt Q9NQU5); assay: as above
# [4] = molecular target: T2, PAK6-5A, expression vector for co-immunoprecipitation (UniProt Q9NQU5); assay: co-IP; as a4 but in the absence of androgen (no DHT); anti-PAK6 immunoprecipitates probed for AR
# T2 sequence: T1 sequence
# [5] = molecular target: T2, PAK6-5A, expression vector for co-immunoprecipitation; assay: co-IP; reciprocal co-immunoprecipitation from HEK-293 cells co-transfected with AR and PAK6-WT, -5A or -5E, with 10 nM DHT, 20 h post-transfection; AR or PAK6 precipitated with specific antibodies, western blot for the other
# [6] = molecular target: PAK6-WT, expression vector for co-immunoprecipitation (UniProt Q9NQU5); assay: as above
# [7] = molecular target: T3, PAK6-5E, expression vector for co-immunoprecipitation (UniProt Q9NQU5); assay: as above
# T3 sequence: T1 sequence with A308E, A326E, A346E, A354E, A360E
substance,measurement,setting,value
"VP16-fused full-length PAK6 (p21-activated kinase 6), pACT vector (from UniProt Q9NQU5 1-681)",binding,[1],binds
"VP16-fused full-length androgen receptor (AR) with HA tag, pACT vector (from UniProt P10275 1-920)",binding,[2],binds
same,binding,[3],binds
"androgen receptor (AR), expression vector for co-immunoprecipitation (from UniProt P10275 1-920)",binding,[4],binds weakly
same,binding,[5],binds
same,binding,[6],binds
same,binding,[7],no binding
